85 compounds from publication PMC4336329 (PLoS ONE, 2015) can be followed below.

In all, about 310,000 compounds went through this assay and about 2,200 (0.71%) showed an effect of 50% or more. Effects have a minus sign here. The list shows a part of the results.

The target of the experiment is human ether-à-go-go-related gene (hERG) potassium channel (human, UniProt Q12809). Briefly: primary screen, population patch clamp on CHO cells stably expressing hERG.
human ether-à-go-go-related gene (hERG) potassium channel, sequence (Q12809 whole entry, looked up): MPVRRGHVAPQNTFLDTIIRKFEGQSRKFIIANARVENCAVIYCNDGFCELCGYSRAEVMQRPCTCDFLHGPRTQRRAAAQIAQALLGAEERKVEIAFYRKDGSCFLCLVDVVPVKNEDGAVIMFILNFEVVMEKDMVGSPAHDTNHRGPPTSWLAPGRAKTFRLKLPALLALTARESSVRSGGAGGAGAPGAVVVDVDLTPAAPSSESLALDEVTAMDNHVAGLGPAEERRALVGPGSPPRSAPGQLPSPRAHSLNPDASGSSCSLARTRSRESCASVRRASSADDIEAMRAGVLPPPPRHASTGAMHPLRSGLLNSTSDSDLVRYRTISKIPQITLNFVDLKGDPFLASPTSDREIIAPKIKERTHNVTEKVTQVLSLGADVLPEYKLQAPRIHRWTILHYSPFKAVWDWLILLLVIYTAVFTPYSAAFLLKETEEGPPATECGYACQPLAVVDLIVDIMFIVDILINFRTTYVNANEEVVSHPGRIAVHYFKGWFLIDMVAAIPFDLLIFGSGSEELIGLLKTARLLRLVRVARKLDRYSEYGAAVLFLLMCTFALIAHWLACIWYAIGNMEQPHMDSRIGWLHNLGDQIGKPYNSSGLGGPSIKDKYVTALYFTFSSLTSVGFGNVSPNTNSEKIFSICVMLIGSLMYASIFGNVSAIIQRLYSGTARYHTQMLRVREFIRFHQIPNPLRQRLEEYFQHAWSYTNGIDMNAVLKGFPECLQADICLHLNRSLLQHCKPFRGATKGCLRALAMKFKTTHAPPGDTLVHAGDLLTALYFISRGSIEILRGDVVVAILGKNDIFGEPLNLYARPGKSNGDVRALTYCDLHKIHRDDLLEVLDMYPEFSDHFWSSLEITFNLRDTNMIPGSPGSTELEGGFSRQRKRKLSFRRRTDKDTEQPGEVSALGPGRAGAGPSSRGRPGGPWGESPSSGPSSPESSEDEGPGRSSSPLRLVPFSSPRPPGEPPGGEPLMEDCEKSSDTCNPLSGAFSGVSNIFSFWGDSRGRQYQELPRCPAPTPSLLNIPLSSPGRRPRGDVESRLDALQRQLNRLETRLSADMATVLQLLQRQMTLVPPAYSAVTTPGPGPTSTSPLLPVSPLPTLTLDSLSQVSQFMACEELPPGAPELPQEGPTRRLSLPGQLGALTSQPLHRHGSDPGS
For the compound `O=C(CSc1nc2ccccc2c(=O)n1Cc1ccco1)N1CCN(c2ccccc2)CC1`, the “hERG current change (%, negative = inhibition) at 1uM” value is -83.6%.
In the case of `COc1cc(S(=O)(=O)N2CCN(Cc3cccs3)CC2)ccc1NC(C)=O`, the “hERG current change (%, negative = inhibition) at 1uM” value worked out at 8.36%.
On to `COc1ccc(CNCCC(c2ccccc2)c2ccc3c(c2)OCO3)cc1.Cl` (stereo not shown), for which the “hERG current change (%, negative = inhibition) at 1uM” value is listed as -68.7%.
Next, `O=C(Nc1ccc2oc(-c3ccncc3)nc2c1)c1ccc2c(c1)OCO2`: 10.9%; `O=c1cccc2n1CC1CC2CN(Cc2c(F)cccc2Cl)C1` (stereo not shown): 7.51%; `O=C(Nc1ccc2c(c1)Cc1ccccc1-2)c1ccc(Br)o1`: 5.67%.
The same measure for `Cc1ccccc1OCC(=O)NNC(=O)c1ccc(-n2cncn2)c([N+](=O)[O-])c1`: 10.4%; for `O=C(Nc1ccc(Oc2ccccc2)cc1)c1ccc(Cn2c(=O)[nH]c3ccsc3c2=O)cc1`: 5.52%.
Next, `COC(=O)[C@@H]1C[C@@]2(O)[C@H](O)[C@H](O)[C@H](O)C[C@H]2N1CC1CC1`: 4.17%; `Cc1cccc(N(CC(=O)NC(C)C)C(=O)c2ccc(N3CCCC3)nc2)c1`: 10.6%; `CC(C)NC(=O)CCCc1ccccc1`: 3.52%.
Consider `O=C1COc2ccc(C(=O)COC(=O)CNC(=O)C3CCCCC3)cc2N1`, for which the “hERG current change (%, negative = inhibition) at 1uM” value is -0.474%.
In the case of `O=C(NCCCn1ccnc1)c1cccc(S(=O)(=O)NCc2ccccc2)c1`, the “hERG current change (%, negative = inhibition) at 1uM” value is -0.842%.
For `O=C(COc1ccc2c3c(c(=O)oc2c1)CCC3)N[C@@H](Cc1ccccc1)C(=O)O`, the “hERG current change (%, negative = inhibition) at 1uM” value turned out to be 14.1%.
Regarding `COc1cccc(NC2=NCC(=O)N2Cc2cccs2)c1.Cl`, the “hERG current change (%, negative = inhibition) at 1uM” value was 15.8%.
Regarding `CCC(C)(C)NC(=O)C(c1ccccn1)N(C(=O)c1csnn1)c1ccccc1` (stereo not shown), the “hERG current change (%, negative = inhibition) at 1uM” value was determined as 9.26%.
For the compound `O=C(Nn1c(=O)[nH]c2ccsc2c1=O)c1ccccc1`, the “hERG current change (%, negative = inhibition) at 1uM” value came out at 17.3%.
The same measure for `O=c1c(C(c2ccc(Cl)cc2)c2c(O)nc3n(c2=O)CCS3)c(O)nc2n1CCS2`: 10.1%; for `COc1ccc(NP(=O)(Oc2cccc(C)c2)Oc2cccc(C)c2)cc1OC`: 8.04%.
The same measure for `Cc1cc(C)c2oc(C(=O)NC3CCS(=O)(=O)C3)cc(=O)c2c1` (stereo not shown): -12.5%; for `Cc1ccc(C(=O)N/N=C2/NC(=O)CC(C(=O)Nc3ccccc3)S2)cc1` (stereo not shown): 3.96%; for `Cc1ccccc1SC1CCN(C(=O)C2CCC(=O)N(C3CC3)C2)CC1` (stereo not shown): 13.4%.
For `O=C(N/N=C/c1ccc(O)cc1)c1cc(-c2ccc3c(c2)OCO3)n[nH]1`, the “hERG current change (%, negative = inhibition) at 1uM” value was determined as 11.5%.
The same measure for `O=C(NC1CC1)C1=C[C@H](c2ccccc2)C[C@H](OCc2ccc(CO)cc2)O1`: 1.4%; for `COc1ccc(CCNC(=O)C2CC(=O)N(CCc3ccc(C)cc3)C2)cc1OC` (stereo not shown): 14.9%.
Next, `Cn1cncc1C#Cc1ccc2cc(C3(O)CCCCC3)oc(=O)c2c1`: 14.1%; `C=CCNC(=O)CSc1nnc(-c2ccc(S(=O)(=O)N3CCCC3)cc2)n1C`: 8.16%.
For the compound `O=Nc1c(O)n(Cc2cccc(C(F)(F)F)c2)c2ccccc12`, the “hERG current change (%, negative = inhibition) at 1uM” value came out at 6.7%.
For `CCOC(=O)C(=CNNc1ccsc1C(=O)OC)C(=O)OCC`, the “hERG current change (%, negative = inhibition) at 1uM” value is recorded as 14.3%.
The same measure for `CCc1ccc(Nc2n[n+](-c3ccccc3)c(/C=C/c3ccccc3)s2)cc1.[Cl-]`: 3.19%; for `N#C/C(=N\Nc1ccccc1)C(=N)N1CCOCC1`: 11.4%; for `CCc1cc(/C(Cc2ccccn2)=N\Nc2ccccc2)c(O)cc1O`: 16.4%.
With `C=C(C)Cn1c(SCC(=O)N/N=C/c2ccccc2OCC(=O)O)nnc1-c1ccc(Br)cc1`, the “hERG current change (%, negative = inhibition) at 1uM” value is listed as 6.35%.
The same measure for `CN(C)c1ccc(/C=C/c2ccc3ccccc3[n+]2C)cc1.[I-]`: -22.5%; for `O=[N+]([O-])c1ccc(/C=N/N2CCN(Cc3ccccc3)CC2)cc1`: -2.82%; for `Cc1nc(-c2ccc(NC(=O)c3ccccc3)cc2)cs1`: 4.13%.
For the compound `Cc1cc(/C([O-])=C(/C(=S)Nc2ccc(F)cc2)[n+]2ccccc2)c(C)n1-c1ccc(F)cc1`, the “hERG current change (%, negative = inhibition) at 1uM” value is recorded as -1.77%.
For `CCCC(=O)Nc1ccc2nc(SCC(=O)Nc3ccc(N4CCOCC4)c(Cl)c3)sc2c1`, the “hERG current change (%, negative = inhibition) at 1uM” value is on record as 0.66%.
For `CCN(C(=O)N1CCOCC1)c1ccccc1`, the “hERG current change (%, negative = inhibition) at 1uM” value worked out at 14.6%.
Next, `O=C(O)c1ccc2c(c1)OCCO2`: 6.23%; `OCCSc1nc(N2CCOCC2)nc(N2CCOCC2)n1`: 13.7%.
With `CCCc1nn(C)c2c1C(c1ccncc1)C(C#N)=C(N)O2` (stereo not shown), the “hERG current change (%, negative = inhibition) at 1uM” value worked out at 26.3%.
Next, `CC1CCCC(C)N1/N=C/C=C/c1ccccc1[N+](=O)[O-]` (stereo not shown): 14.6%.
The same measure for `CCC(=O)N1CCN(c2ccc(OC)cc2[N+](=O)[O-])CC1`: -0.687%; for `NS(=O)(=O)c1ccc(CCNC(=O)Nc2ccc(Cl)c(Cl)c2)cc1`: 6.75%; for `CCCn1c(CN2CCN(C(C)=O)CC2)nc2cc(S(=O)(=O)N(C)C)ccc21`: 25.5%.
The same measure for `Nc1cccc(N=Cc2c(O)n(Cc3ccc(F)cc3)c(=O)[nH]c2=O)c1`: 13.5%; for `CS(=O)(=O)Nc1ccc(C(=O)Nc2cccc([N+](=O)[O-])c2)cc1`: -5.21%.
As to `CCn1c(/C=C\c2ccccc2C)nc2ccccc2c1=O`, the “hERG current change (%, negative = inhibition) at 1uM” value is -1.58%.
On to `CNC(=S)N(CCc1c(C)[nH]c2ccc(Cl)cc12)Cc1cccnc1`, for which the “hERG current change (%, negative = inhibition) at 1uM” value is 10.9%.
Regarding `COc1ccccc1/C=C/CN1CCC(n2nccc2NC(=O)CCc2ccccc2)CC1`, the “hERG current change (%, negative = inhibition) at 1uM” value is -24.8%.
Turning to `O=C(NCCN1CCN(c2ccccc2)CC1)Nc1ccccc1Cl`, the “hERG current change (%, negative = inhibition) at 1uM” value is reported as -5.21%.
The same measure for `COc1cc(S(=O)(=O)N2CCN(c3ccc(F)cc3)CC2)ccc1Cl`: 2.91%; for `Cc1ccccc1Nc1c(-c2ccccc2)nc2ncccn12`: 0.738%.
Regarding `COc1ccc(OC)c(CCNC(=O)c2ccc3c(=O)[nH]c4c(C(=O)NC(C)C)sc(=S)n4c3c2)c1`, the “hERG current change (%, negative = inhibition) at 1uM” value came to 8.45%.
Next, `O=C(N/N=C/c1cccc([N+](=O)[O-])c1)C1CC(=O)N(c2ccc(Br)cc2)C1` (stereo not shown): -15%; `COc1ccccc1C(=O)N/C(=C\c1ccc(Br)cc1)C(=O)NCCCO`: -0.677%.
Turning to `COc1cccc(/C=C2\SC(=S)N(NS(=O)(=O)c3ccc(C)cc3)C2=O)c1OC`, the “hERG current change (%, negative = inhibition) at 1uM” value amounted to 11.6%.
As for `CC(=O)c1ccc(NC(=O)CCS(=O)(=O)c2ccc3c(c2)n(C)c(=O)c(=O)n3C)cc1`, the “hERG current change (%, negative = inhibition) at 1uM” value is 10.6%.
The same measure for `CC(C)c1ccccc1-n1c(-c2cccnc2)n[nH]c1=S`: 14%; for `CN1CCC(=NNC(=O)C(=O)NC(C)(C)C)CC1`: -0.402%; for `COC(=O)C(CCCCN1C(=O)C2C3C=CC(C3)C2C1=O)N1C(=O)C2C3C=CC(C3)C2C1=O` (stereo not shown): 11.9%.
The same measure for `COc1ccc(CNCc2ccc3c(c2)OCO3)cc1Br.O=C(O)C(=O)O`: -1.1%; for `C(=NCCCN1CCOCC1)c1ccc2c(c1)OCO2`: 16.1%.
The same measure for `COc1ccc(-n2c3c(c(=O)[nH]c2=O)C(C(F)(F)F)(C(F)(F)F)N=C(CC(C)C)N3)cc1`: -5.44%; for `O=C(c1cc2ccccc2cc1O)N1CCN(c2ccccc2O)CC1`: -5.37%.
Take `O=C(C1CCCN(c2ncnc3c2nc2n3CCCCC2)C1)N1CCN(c2cccc(Cl)c2)CC1` (stereo not shown): the “hERG current change (%, negative = inhibition) at 1uM” value was -14.8%.
In the case of `CCOC(=O)CSc1nc2c(cnn2-c2ccc(F)cc2)c(=O)[nH]1`, the “hERG current change (%, negative = inhibition) at 1uM” value amounted to 11.5%.
The same measure for `COc1ccc(C2c3c(ncn(CCN4CCOCC4)c3=N)Oc3ccc4ccccc4c32)cc1OC` (stereo not shown): 2.81%.
In the case of `CC(C)(C)c1csc(N/N=C/c2cccnc2)n1`, the “hERG current change (%, negative = inhibition) at 1uM” value was determined as 5.61%.
As to `O=C(COc1ccc2ccccc2c1)N/N=C/C1CC=CCC1` (stereo not shown), the “hERG current change (%, negative = inhibition) at 1uM” value was 0.937%.
Next, `CN(CC(=O)NCCc1ccc(S(N)(=O)=O)cc1)c1ccccc1`: 13%; `COc1ccc(CC(=O)N/N=C(\C)c2ccccn2)cc1`: 16.2%.
Consider `O=C(COc1ccc2c(c1)oc(=O)c1ccccc12)NCCCN1CCOCC1`, for which the “hERG current change (%, negative = inhibition) at 1uM” value is listed as 0.293%.
Next, `O=C(CN1C(=O)/C(=C\c2cccc(Cl)c2)Oc2ccccc21)N1CCN(c2ccccn2)CC1`: 14.6%; `Cc1cccc(NC(=S)N2CCCCC2c2cccnc2)c1C` (stereo not shown): 8.61%; `CCn1ccnc1CN(C)C(=O)C1CCC(=O)N(CCc2cccc(F)c2)C1` (stereo not shown): -0.0147%.
Next, `O=C(N1CCCCC1)N1CCN(S(=O)(=O)c2cccc([N+](=O)[O-])c2)CC1`: 3.91%.
The same measure for `COC(C(=O)Nc1c(F)cccc1F)c1ccccc1` (stereo not shown): 7.76%; for `COc1cc(O)c2c(=O)cc(-c3ccccc3)oc2c1`: 8.69%; for `Cc1ccccc1Cn1c(-c2ccc(=O)[nH]c2)nc2ccccc21`: 14%.
Take `c1cc(N2CCCC2)ccc1C(c1nnnn1C1CCCCC1)N1CCOCC1` (stereo not shown): the “hERG current change (%, negative = inhibition) at 1uM” value was 16.6%.
Next, `Cc1c(C(c2ccc(F)cc2)c2c(C)n(C)n(-c3ccccc3)c2=O)c(=O)n(-c2ccccc2)n1C`: 18.4%.
As to `O=[N+]([O-])c1cccc(-c2nnc(-c3ccccc3F)o2)c1`, the “hERG current change (%, negative = inhibition) at 1uM” value stood at 13.8%.
The same measure for `Cc1cccc(C)c1NC(=O)CN(c1ccccn1)S(=O)(=O)c1ccc(F)cc1`: -10.3%.
